# Test results: the supplement of paper PMC4604168 (melanoma cell lines)
# This is one part of the list. Single values are uncertain, as repeats are few or missing.
# Tested on: WM3526
# Assay: cell count relative to DMSO control; melanoma cells; higher = more viable cells
# Conditions: library dose: standard library concentration; 72 h
# 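Also: cells treated in 1,536-well plates, then fixed and DAPI-stained, with nuclei counted from automated high-throughput microscope images.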
row,Structure (SMILES),cell count [%]
1,"CS(=O)(=O)c1ccc(C(=O)Nc2ccc(Cl)c(-c3ccccn3)c2)c(Cl)c1 [vismodegib] + Cn1c(Nc2ccc(C(F)(F)F)cc2)nc2cc(Oc3ccnc(-c4ncc(C(F)(F)F)[nH]4)c3)ccc21 [CHIR265] (first compound 5 µM, partner dose 0.4 µM)",54.7
2,"CS(=O)(=O)c1ccc(C(=O)Nc2ccc(Cl)c(-c3ccccn3)c2)c(Cl)c1 [vismodegib] + O=C(CCCCCCC(=O)Nc1ccccc1)NO [vorinostat] (first compound 5 µM, partner dose 0.4 µM)",67.1
3,"CS(=O)(=O)c1ccc(C(=O)Nc2ccc(Cl)c(-c3ccccn3)c2)c(Cl)c1 [vismodegib] + Cc1cc(Nc2cc(N3CCN(C)CC3)nc(/C=C/c3ccccc3)n2)n[nH]1 [ENMD2076] (first compound 5 µM, partner dose 0.2 µM)",67.9
4,"CS(=O)(=O)c1ccc(C(=O)Nc2ccc(Cl)c(-c3ccccn3)c2)c(Cl)c1 [vismodegib] + OCc1c[nH]c2ccccc12 [Indole-3-carbinol] (first compound 5 µM, partner dose 4 µM)",122
5,"CN(c1ncccc1CNc1nc(Nc2ccc3c(c2)CC(=O)N3)ncc1C(F)(F)F)S(C)(=O)=O + C[C@]1(c2nc3c(C(N)=O)cccc3[nH]2)CCCN1 [Veliparib] (first compound 0.4 µM, partner dose 7 µM)",88.6
6,"C=C(c1ccc(C(=O)O)cc1)c1cc2c(cc1C)C(C)(C)CCC2(C)C [Bexarotene] + Cc1ccc(NC(=O)c2cccc(N(C)C)c2)cc1NC(=O)c1ccc(O)cc1 [ZM336372] (first compound 10 µM, partner dose 10 µM)",88.8
7,"CCCS(=O)(=O)Nc1ccc(F)c(C(=O)c2c[nH]c3ncc(Cl)cc23)c1F + CC1(C)NC(=O)N(c2ccc([N+](=O)[O-])c(C(F)(F)F)c2)C1=O [nilutamide] (first compound 0.4 µM, partner dose 5 µM)",58.8
8,"CS(=O)(=O)c1ccc(C(=O)Nc2ccc(Cl)c(-c3ccccn3)c2)c(Cl)c1 [vismodegib] + C[C@@H]1CCN(C(=O)CC#N)C[C@@H]1N(C)c1ncnc2[nH]ccc12 [CP690550] (first compound 5 µM, partner dose 5 µM)",102
9,"NC1(c2ccc(-c3nc4ccn5c(=O)[nH]nc5c4cc3-c3ccccc3)cc2)CCC1 + CN(NC(=O)CC(=O)NN(C)C(=S)c1ccccc1)C(=S)c1ccccc1 [STA4783] (first compound 2 µM, partner dose 0.03 µM)",59.7
10,"CS(=O)(=O)c1ccc(C(=O)Nc2ccc(Cl)c(-c3ccccn3)c2)c(Cl)c1 [vismodegib] + Nc1ccn([C@@H]2O[C@H](CO)[C@@H](O)C2(F)F)c(=O)n1 [gemcitabine] (first compound 5 µM, partner dose 0.002 µM)",127
11,"CCCS(=O)(=O)Nc1ccc(F)c(C(=O)c2c[nH]c3ncc(Cl)cc23)c1F + O=C(CCCCCCC(=O)Nc1ccccc1)NO [vorinostat] (first compound 0.4 µM, partner dose 0.4 µM)",45.5
12,"CN(c1ncccc1CNc1nc(Nc2ccc3c(c2)CC(=O)N3)ncc1C(F)(F)F)S(C)(=O)=O + Cn1nnc2c(C(N)=O)ncn2c1=O [temozolomide] (first compound 0.4 µM, partner dose 10 µM)",89.7
13,"CCCS(=O)(=O)Nc1ccc(F)c(C(=O)c2c[nH]c3ncc(Cl)cc23)c1F + COc1ccc(Cl)c(Nc2nc3ccccc3nc2NS(=O)(=O)c2cccc(NC(=O)C(C)(C)N)c2)c1 [XL147] (first compound 0.4 µM, partner dose 4 µM)",48
14,"NC1(c2ccc(-c3nc4ccn5c(=O)[nH]nc5c4cc3-c3ccccc3)cc2)CCC1 + Cn1c(=O)n(-c2ccc(C(C)(C)C#N)cc2)c2c3cc(-c4cnc5ccccc5c4)ccc3ncc21 [NVP-BEZ235] (first compound 2 µM, partner dose 0.02 µM)",35.5
15,"NC1(c2ccc(-c3nc4ccn5c(=O)[nH]nc5c4cc3-c3ccccc3)cc2)CCC1 + Cc1nc(Nc2ncc(C(=O)Nc3c(C)cccc3Cl)s2)cc(N2CCN(CCO)CC2)n1 [dasatanib] (first compound 2 µM, partner dose 0.02 µM)",60.2
